In the supplement of paper PMC11417369:
Some of the results follow.

Each sequence was assayed on PfAP2-HC AP2 domain (GST-tagged) (assay: gcPBM binding intensity (ln(normalized median fluorescence intensity)); higher = stronger DNA binding).
Procedure, shortened: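 For binding intensity, the highest Masliner-normalised natural-log median intensity across replicate spots of either probe orientation was taken. Protein bound to the array was stained with Alexa488 anti-GST antibody and scanned at 488 nm. The protein, GST-tagged P. falciparum DNA-binding domains from E. coli at about 25 μg on average, had been applied for 1 h to an Agilent 4 × 180k array of primer-extended double-stranded 36-bp intergenic genomic probes and negative controls.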
In the case of “GATATTTTTATTTGTTGTACTTAAGATAATAAATGA [XGTACX_site2891]”, the “gcPBM binding intensity (ln)” value is reported as 9.35.
With “AAAAAAAAAAAAATACGTACACAAAAAATTGCAAAG [XGTACX_site5663]” the “gcPBM binding intensity (ln)” value was 9.81.
With “AATATATTAAAAAAGCGTACAAGAATTGGAAAATGG [XGTACX_site6576]” the “gcPBM binding intensity (ln)” value was 9.83.
For “CATACATAAATATAAACATGCATATATTTTTTTTAT [TGCATGCA_site616]”, the “gcPBM binding intensity (ln)” value was 9.61.
In the case of “ATTTTAATAAAATATGTACACACATACACCCATATA [CACACA_site8326]”, the “gcPBM binding intensity (ln)” value is reported as 9.95.
For “TGATATCTTAAGAAATGTACAAAGATATAACCATTT [XGTACX_site1913]”, the “gcPBM binding intensity (ln)” value was 9.41.
With “TAAATAAAAAAAAATACACACATCTATATAAAATAT [CACACA_site3774]” the “gcPBM binding intensity (ln)” value was 9.89.
With “GTATCAAAAGAATACACACACACATACCTATAAATA [CACACA_site7737]” the “gcPBM binding intensity (ln)” value was 10.8.
With “AAAGGAAAAAAAGTAGCACACAAATATTTATAATAT [CACACA_site8772]” the “gcPBM binding intensity (ln)” value was 10.2.
In the case of “AAAAAAAAAACACACACATGCACATCATATTATATA [TGCATGCA_site133]”, the “gcPBM binding intensity (ln)” value is reported as 10.2.
With “ATATATTATCAACTTACACACAGAAAAATATAATAA [CACACA_site293]” the “gcPBM binding intensity (ln)” value was 9.89.
With “TTTAAAGGTGATAAAACACACGATTTAGAAATGTAT [CACACA_site3161]” the “gcPBM binding intensity (ln)” value was 9.9.
With “GATATGTAAATAATATGTACATATTTATATTGTATT [XGTACX_site4052]” the “gcPBM binding intensity (ln)” value was 9.76.
In the case of “AAAAAGAATGTGAACACACACATTGAATATAATTTA [CACACA_site1262]”, the “gcPBM binding intensity (ln)” value is reported as 10.4.
For “TTAATACAAATAAAAAGTACAAGTATCGAACTACTA [XGTACX_site6308]”, the “gcPBM binding intensity (ln)” value was 9.64.
In the case of “TTTTTAGTAACATATAGTACATATATATATATATGT [XGTACX_site4780]”, the “gcPBM binding intensity (ln)” value is reported as 9.7.
In the case of “TTATTTTTTCTTCAAATGTGAATTATTCATTTATTT [TGCATGCA_negctrl_site545]”, the “gcPBM binding intensity (ln)” value is reported as 9.71.
In the case of “ATAATATGAAACTCGTACGAGGTTGTCCCAAATATA [CACACA_negctrl_site1350]”, the “gcPBM binding intensity (ln)” value is reported as 9.84.
“TTAAAAAACATTTGAACATGCAATTGTATATGTAGA [TGCATGCA_site334]” was tested, and the “gcPBM binding intensity (ln)” value was 9.62.
“AAACAAAAGGAAAACATATATATATTAAATGTATAT [CACACA_negctrl_site1663]” was tested, and the “gcPBM binding intensity (ln)” value was 9.75.
With “TGAAATTAAATATATACACACATATATATTTATATG [CACACA_site3516]” the “gcPBM binding intensity (ln)” value was 9.66.
In the case of “GCAAAATAACAATGTTACACTTATAAAATTGAGGCA [GTGCAC_negctrl_site68]”, the “gcPBM binding intensity (ln)” value is reported as 9.65.
With “ATTTATATTCCAATATGTACATATTTTCGTATAACC [XGTACX_site8507]” the “gcPBM binding intensity (ln)” value was 9.74.
With “TTTTTTTTTCTCCATACACACTTGATAAAACTTTTT [CACACA_site4512]” the “gcPBM binding intensity (ln)” value was 9.64.
In the case of “ATTACAAATTCTTTCAGTACATATAAAGAAAAAAAT [XGTACX_site7786]”, the “gcPBM binding intensity (ln)” value is reported as 9.57.
“ATTTAGAATGTTCCTACACACCAAATTTAAGGGTGC [CACACA_site5320]” was tested, and the “gcPBM binding intensity (ln)” value was 9.63.
For “ATATATACCTATATTACACACTTCTTATTCTAAGAA [CACACA_site7421]”, the “gcPBM binding intensity (ln)” value was 9.7.
In the case of “ATTGTTACATAAAATGCACACTTTCAAATATGCTAA [CACACA_site5600]”, the “gcPBM binding intensity (ln)” value is reported as 9.65.
With “TATACACATATATATAGTACATATATAATTTACTAT [XGTACX_site1849]” the “gcPBM binding intensity (ln)” value was 9.76.
With “AGTATTCTAATTTTTAAACACACAAATATAAATAAG [CACACA_site9029]” the “gcPBM binding intensity (ln)” value was 9.64.
For “AGGGTTCATATATTAACACACACATACATATTATAT [CACACA_site8959]”, the “gcPBM binding intensity (ln)” value was 10.1.
With “TTCATATATAATTGTACACACAAAAACGACATTGTG [CACACA_site2074]” the “gcPBM binding intensity (ln)” value was 9.78.
With “GGAAATAAAATTAAATGTACGAAAACTCATTAAATT [XGTACX_site4274]” the “gcPBM binding intensity (ln)” value was 9.58.
In the case of “TAAATATGAGGGAACACACACATGATATATAAATTC [CACACA_site2400]”, the “gcPBM binding intensity (ln)” value is reported as 10.1.
With “AAACGGGAGAAATAAAAATAAAAATAATAAAACAAA [XGTACX_negctrl_site586]” the “gcPBM binding intensity (ln)” value was 9.67.
In the case of “TATACTCATGGACACACACACATACACAGACATACA [CACACA_site5024]”, the “gcPBM binding intensity (ln)” value is reported as 10.4.
In the case of “AAATATCAACTCAAATGTACAAATCACAAAAATGTA [XGTACX_site5344]”, the “gcPBM binding intensity (ln)” value is reported as 9.64.
For “ATATATGATGTATTTGTGCACATATATATATTATTA [GTGCAC_site9471]”, the “gcPBM binding intensity (ln)” value was 9.78.
“TAAATAAAAAGACACACACACATATTTATATTTATA [CACACA_site7135]” was tested, and the “gcPBM binding intensity (ln)” value was 10.4.
“ATATTAAAAAGGAAATGTACGTAATGAAGATCAAGT [XGTACX_site3138]” was tested, and the “gcPBM binding intensity (ln)” value was 10.
In the case of “TAAATTGGTGCAAAGTGTACATATATATCTTTCCTA [XGTACX_site5458]”, the “gcPBM binding intensity (ln)” value is reported as 9.61.
With “GAGAAAAATATATACACACACATAAATATATACATA [CACACA_site1895]” the “gcPBM binding intensity (ln)” value was 10.4.
With AAAATTATTTAGTAAGTGCAAAAAAAAAAAAAAAAA the “gcPBM binding intensity (ln)” value was 9.28.
In the case of “AATTTGATTATAAATTGTACATATATATATTAAAAG [XGTACX_site5461]”, the “gcPBM binding intensity (ln)” value is reported as 9.67.
